T1: RBFOX1 RRM RbFoxmut (Fox-RRM*) (Homo sapiens, UniProt Q9NWB1 109-208, R118D;E147R;N151S;E152T)
T1 sequence: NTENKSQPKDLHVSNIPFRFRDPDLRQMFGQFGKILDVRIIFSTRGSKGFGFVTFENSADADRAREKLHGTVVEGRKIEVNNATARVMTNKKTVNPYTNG

B1: AUGAGAG (DNA:RNA)
RNA: GGGAGACCGGAAUUCAGAUUGUCCAUGAGAGUUAAAUCCCGUCGUAGCCACCA
DNA 1: CAATCTGAATTCCGGTCTCCC
DNA 2: TGGTGGCTACGACGGGATT
B2: AUCACAC (DNA:RNA)
RNA: B1 RNA with G27C, G29C, G31C
DNA 1: CAATCTGAATTCCGGTCTCCC
DNA 2: TGGTGGCTACGACGGGATT
B3: GGAGUUA (DNA:RNA)
RNA: GGGAGACCGGAAUUCAGAUUGUCCGGAGUUAUUAAAUCCCGUCGUAGCCACCA
DNA 1: CAATCTGAATTCCGGTCTCCC
DNA 2: TGGTGGCTACGACGGGATT
B4: GCUCUCC (DNA:RNA)
RNA: B3 RNA with G26C, A27U, G28C, U30C, A31C
DNA 1: CAATCTGAATTCCGGTCTCCC
DNA 2: TGGTGGCTACGACGGGATT
B5: GAGGUGC (DNA:RNA)
RNA: B3 RNA with G26A, A27G, U30G, A31C
DNA 1: CAATCTGAATTCCGGTCTCCC
DNA 2: TGGTGGCTACGACGGGATT
B6: AUGCCAG (DNA:RNA)
RNA: B1 RNA with A28C, G29C
DNA 1: CAATCTGAATTCCGGTCTCCC
DNA 2: TGGTGGCTACGACGGGATT
B7: GAUAGAA (DNA:RNA)
RNA: B1 RNA with A25G, U26A, G27U, G31A
DNA 1: CAATCTGAATTCCGGTCTCCC
DNA 2: TGGTGGCTACGACGGGATT
B8: UCCGUGC (DNA:RNA)
RNA: B3 RNA with G25U, G26C, A27C, U30G, A31C
DNA 1: CAATCTGAATTCCGGTCTCCC
DNA 2: TGGTGGCTACGACGGGATT
B9: AUUCUCG (DNA:RNA)
RNA: B1 RNA with G27U, A28C, G29U, A30C
DNA 1: CAATCTGAATTCCGGTCTCCC
DNA 2: TGGTGGCTACGACGGGATT
B10: GGUAGGG (DNA:RNA)
RNA: B1 RNA with A25G, U26G, G27U, A30G
DNA 1: CAATCTGAATTCCGGTCTCCC
DNA 2: TGGTGGCTACGACGGGATT
B11: AUGGCCG (DNA:RNA)
RNA: B1 RNA with A28G, G29C, A30C
DNA 1: CAATCTGAATTCCGGTCTCCC
DNA 2: TGGTGGCTACGACGGGATT
B12: CUAUGCU (DNA:RNA)
RNA: B1 RNA with A25C, G27A, A28U, A30C, G31U
DNA 1: CAATCTGAATTCCGGTCTCCC
DNA 2: TGGTGGCTACGACGGGATT
B13: AUGGACA (DNA:RNA)
RNA: B1 RNA with A28G, G29A, A30C, G31A
DNA 1: CAATCTGAATTCCGGTCTCCC
DNA 2: TGGTGGCTACGACGGGATT
B14: AUGGUGU (DNA:RNA)
RNA: B1 RNA with A28G, G29U, A30G, G31U
DNA 1: CAATCTGAATTCCGGTCTCCC
DNA 2: TGGTGGCTACGACGGGATT
B15: UGGUUAA (DNA:RNA)
RNA: B3 RNA with G25U, A27G, G28U, U30A
DNA 1: CAATCTGAATTCCGGTCTCCC
DNA 2: TGGTGGCTACGACGGGATT
B16: UGGAAAC (DNA:RNA)
RNA: B1 RNA with A25U, U26G, G29A, G31C
DNA 1: CAATCTGAATTCCGGTCTCCC
DNA 2: TGGTGGCTACGACGGGATT
B17: GAUCAGC (DNA:RNA)
RNA: B3 RNA with G26A, A27U, G28C, U29A, U30G, A31C
DNA 1: CAATCTGAATTCCGGTCTCCC
DNA 2: TGGTGGCTACGACGGGATT
B18: CGUCAAG (DNA:RNA)
RNA: B1 RNA with A25C, U26G, G27U, A28C, G29A
DNA 1: CAATCTGAATTCCGGTCTCCC
DNA 2: TGGTGGCTACGACGGGATT
B19: AAUUUGG (DNA:RNA)
RNA: B1 RNA with U26A, G27U, A28U, G29U, A30G
DNA 1: CAATCTGAATTCCGGTCTCCC
DNA 2: TGGTGGCTACGACGGGATT
B20: CAAGGUU (DNA:RNA)
RNA: B3 RNA with G25C, G26A, U29G, A31U
DNA 1: CAATCTGAATTCCGGTCTCCC
DNA 2: TGGTGGCTACGACGGGATT

Changes are numbered by the printed parent chain; changes in the protein carry UniProt numbers. Some of the results follow.

This assay addresses T1, RBFOX1 RRM RbFoxmut (Fox-RRM*). The experiment in a line: EMSA; HiTS-Eq, 1 nM pool, 10 min; buffer printed only for the single-RNA assays: 10 mM Tris pH 7.5, 150 mM NaCl, 3.4 mM EDTA, 0.001% NP-40, 30 C. As to conditions: tags: His6 N-terminal (pET28a); label: 5' 32P. Summed up: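 Purified wild-type or mutant RbFox RRM at increasing concentrations was equilibrated with 1 nM of 5′-radiolabelled RNA carrying 7 randomized nucleotides for 10 min in 50 µL. Unbound RNA was separated by 8% native PAGE and sequenced. Relative association constants came from read-count changes of each RNA species compared with the control reaction, normalised to the cognate motif.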
For the molecule B1, the binding signal was 0.16 KA relative to UGCAUGU.
With B2, the binding signal was 0.0973 KA relative to UGCAUGU.
Regarding B3, the binding signal was 0.101 KA relative to UGCAUGU.
Regarding B4, the binding signal is 0.0322 KA relative to UGCAUGU.
As for B5, the binding signal is 0.0992 KA relative to UGCAUGU.
As for B6, the binding signal was 0.11 KA relative to UGCAUGU.
For the molecule B7, the binding signal is 0.099 KA relative to UGCAUGU.
For B8, the binding signal was 0.084 KA relative to UGCAUGU.
B9: the binding signal is 0.0772 KA relative to UGCAUGU.
B10: the binding signal is 0.0522 KA relative to UGCAUGU.
Turning to B11, the binding signal was 0.187 KA relative to UGCAUGU.
The figure for B12 is 0.119 KA relative to UGCAUGU.
The figure for B13 is 0.0565 KA relative to UGCAUGU.
Consider B14, for which the binding signal was 0.19 KA relative to UGCAUGU.
For the molecule B15, the binding signal is 0.112 KA relative to UGCAUGU.
B16: the binding signal was 0.0728 KA relative to UGCAUGU.
For the molecule B17, the binding signal was 0.103 KA relative to UGCAUGU.
On to B18, for which the binding signal is 0.0956 KA relative to UGCAUGU.
As for B19, the binding signal is 0.0486 KA relative to UGCAUGU.
Regarding B20, the binding signal is 0.0803 KA relative to UGCAUGU.
